# T1: cynomolgus 4-1BB (cynomolgus, UniProt A9YYE7 24-186)
# T1 sequence: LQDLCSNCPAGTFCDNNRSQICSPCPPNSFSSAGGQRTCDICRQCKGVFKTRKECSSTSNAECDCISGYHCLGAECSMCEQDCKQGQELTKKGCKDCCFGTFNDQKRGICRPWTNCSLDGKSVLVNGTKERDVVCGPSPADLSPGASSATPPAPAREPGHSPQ
# B1: B37 (bispecific antibody, IgG1)
# chain: EVQLVQSGAEVKKPGSSVKVSCKASGYTFTDYYINWVRQAPGQGLEWIGWIFPGSGSVYCNEQFKGRATLTVDRSTSTAYMELSSLRSEDTAVYFCASSLGKFAYWGQGTLVTVSSDLSGGGGSGGGGSGGGGSGGGGSTGDIQMTQSPSSLSASVGDRVTITCKASQSVVTAVAWYQQKPGKSPKLLIYSASNRYTGVPSRFSGSGSGTDFTLTISSLQPEDFATYFCQQYSSYPYTFGGGTKVEIKR[human IgG1 Fc with C220S V273E (EU numbers) not written out]VDGASSPVNVSSPSVQDISYELTQPPSVSVSPGQTASITCSGDKLGDKYASWYQQKPGQSPVLVIYQDNRRPSGIPERFSGSNSGNTATLTISGTQAMDEADYYCQAWDSDTYVFGTGTKVTVLGQDLSGGGGSGGGGSGGGGSGGGGSTGEVQLVQSGAEVKKPGASVKVSCKASGDTFKRYYVHWVRQAPGQGLEWMGIINPSGVSTTYAQKFQGRVTMTRDTSTSTVYMELSSLRSEDTAVYYCAEVRGSGFNYFGMDVWGQGTLVTVSS
# notes: scFv-Fc-scFv: huAb8-1 (VH-VL), huIgG1 V273E, HuAM15 (VL-VH)
# B2: B38 (bispecific antibody)
# chain: DIQMTQSPSSLSASVGDRVTITCKASQSVVTAVAWYQQKPGKSPKLLIYSASNRYTGVPSRFSGSGSGTDFTLTISSLQPEDFATYFCQQYSSYPYTFGGGTKVEIKRDLSGGGGSGGGGSGGGGSGGGGSTGEVQLVQSGAEVKKPGSSVKVSCKASGYTFTDYYINWVRQAPGQGLEWIGWIFPGSGSVYCNEQFKGRATLTVDRSTSTAYMELSSLRSEDTAVYFCASSLGKFAYWGQGTLVTVSS[human IgG1 Fc with C220S V273E (EU numbers) not written out]VDGASSPVNVSSPSVQDISYELTQPPSVSVSPGQTASITCSGDKLGDKYASWYQQKPGQSPVLVIYQDNRRPSGIPERFSGSNSGNTATLTISGTQAMDEADYYCQAWDSDTYVFGTGTKVTVLGQDLSGGGGSGGGGSGGGGSGGGGSTGEVQLVQSGAEVKKPGASVKVSCKASGDTFKRYYVHWVRQAPGQGLEWMGIINPSGVSTTYAQKFQGRVTMTRDTSTSTVYMELSSLRSEDTAVYYCAEVRGSGFNYFGMDVWGQGTLVTVSS
# notes: scFv-Fc-scFv
# B3: B41 (bispecific antibody)
# chain: DAVMTQTPLSLSVTPGQPASISCRSSQSLENTNGNTFLNWYLQKPGQSPQLLIYRVSNRFSGVPDRFSGSGSGTDFTLKISRVEAEDVGVYYCLQVTHVPFTFGQGTKLEIKRDLSGGGGSGGGGSGGGGSGGGGSTGEVQLQESGPGLVKPSETLSLTCTVSGYSITSNYYWNWIRQPPGKGLEWMGYIRYDGSNNYNPSLKNRVTISRDTSKNQFSLKLSSVTAADTAVYYCARLDYWGQGTTVTVSSR[human IgG1 Fc with C220S V273E (EU numbers) not written out]VDGASSPVNVSSPSVQDIEVQLVQSGAEVKKPGASVKVSCKASGDTFKRYYVHWVRQAPGQGLEWMGIINPSGVSTTYAQKFQGRVTMTRDTSTSTVYMELSSLRSEDTAVYYCAEVRGSGFNYFGMDVWGQGTLVTVSSDLSGGGGSGGGGSGGGGSGGGGSTGSYELTQPPSVSVSPGQTASITCSGDKLGDKYASWYQQKPGQSPVLVIYQDNRRPSGIPERFSGSNSGNTATLTISGTQAMDEADYYCQAWDSDTYVFGTGTKVTVLGQ
# notes: scFv-Fc-scFv
# B4: B42 (bispecific antibody)
# chain: DAVMTQTPLSLSVTPGQPASISCRSSQSLENTNGNTFLNWYLQKPGQSPQLLIYRVSNRFSGVPDRFSGSGSGTDFTLKISRVEAEDVGVYYCLQVTHVPFTFGQGTKLEIKRDLSGGGGSGGGGSGGGGSGGGGSTGEVQLQESGPGLVKPSETLSLTCTVSGYSITSNYYWNWIRQPPGKGLEWMGYIRYDGSNNYNPSLKNRVTISRDTSKNQFSLKLSSVTAADTAVYYCARLDYWGQGTTVTVSSR[human IgG1 Fc with C220S V273E (EU numbers) not written out]VDGASSPVNVSSPSVQDISYELTQPPSVSVSPGQTASITCSGDKLGDKYASWYQQKPGQSPVLVIYQDNRRPSGIPERFSGSNSGNTATLTISGTQAMDEADYYCQAWDSDTYVFGTGTKVTVLGQDLSGGGGSGGGGSGGGGSGGGGSTGEVQLVQSGAEVKKPGASVKVSCKASGDTFKRYYVHWVRQAPGQGLEWMGIINPSGVSTTYAQKFQGRVTMTRDTSTSTVYMELSSLRSEDTAVYYCAEVRGSGFNYFGMDVWGQGTLVTVSS
# notes: scFv-Fc-scFv
# B5: B43 (bispecific antibody)
# chain: EVQLVQSGAEVKKPGASVKVSCKASGDTFKRYYVHWVRQAPGQGLEWMGIINPSGVSTTYAQKFQGRVTMTRDTSTSTVYMELSSLRSEDTAVYYCAEVRGSGFNYFGMDVWGQGTLVTVSSDLSGGGGSGGGGSGGGGSGGGGSTGSYELTQPPSVSVSPGQTASITCSGDKLGDKYASWYQQKPGQSPVLVIYQDNRRPSGIPERFSGSNSGNTATLTISGTQAMDEADYYCQAWDSDTYVFGTGTKVTVLGQ[human IgG1 Fc with C220S V273E (EU numbers) not written out]VDGASSPVNVSSPSVQDIDIQMTQSPSSLSASVGDRVTITCKASQSVVTAVAWYQQKPGKSPKLLIYSASNRYTGVPSRFSGSGSGTDFTLTISSLQPEDFATYFCQQYSSYPYTFGGGTKVEIKRDLSGGGGSGGGGSGGGGSGGGGSTGEVQLVQSGAEVKKPGSSVKVSCKASGYTFTDYYINWVRQAPGQGLEWIGWIFPGSGSVYCNEQFKGRATLTVDRSTSTAYMELSSLRSEDTAVYFCASSLGKFAYWGQGTLVTVSS
# notes: scFv-Fc-scFv
# B6: B44 (bispecific antibody)
# chain: SYELTQPPSVSVSPGQTASITCSGDKLGDKYASWYQQKPGQSPVLVIYQDNRRPSGIPERFSGSNSGNTATLTISGTQAMDEADYYCQAWDSDTYVFGTGTKVTVLGQDLSGGGGSGGGGSGGGGSGGGGSTGEVQLVQSGAEVKKPGASVKVSCKASGDTFKRYYVHWVRQAPGQGLEWMGIINPSGVSTTYAQKFQGRVTMTRDTSTSTVYMELSSLRSEDTAVYYCAEVRGSGFNYFGMDVWGQGTLVTVSS[human IgG1 Fc with C220S V273E (EU numbers) not written out]VDGASSPVNVSSPSVQDIEVQLVQSGAEVKKPGSSVKVSCKASGYTFTDYYINWVRQAPGQGLEWIGWIFPGSGSVYCNEQFKGRATLTVDRSTSTAYMELSSLRSEDTAVYFCASSLGKFAYWGQGTLVTVSSDLSGGGGSGGGGSGGGGSGGGGSTGDIQMTQSPSSLSASVGDRVTITCKASQSVVTAVAWYQQKPGKSPKLLIYSASNRYTGVPSRFSGSGSGTDFTLTISSLQPEDFATYFCQQYSSYPYTFGGGTKVEIKR
# notes: scFv-Fc-scFv
# B7: B45 (bispecific antibody)
# chain: SYELTQPPSVSVSPGQTASITCSGDKLGDKYASWYQQKPGQSPVLVIYQDNRRPSGIPERFSGSNSGNTATLTISGTQAMDEADYYCQAWDSDTYVFGTGTKVTVLGQDLSGGGGSGGGGSGGGGSGGGGSTGEVQLVQSGAEVKKPGASVKVSCKASGDTFKRYYVHWVRQAPGQGLEWMGIINPSGVSTTYAQKFQGRVTMTRDTSTSTVYMELSSLRSEDTAVYYCAEVRGSGFNYFGMDVWGQGTLVTVSS[human IgG1 Fc with C220S V273E (EU numbers) not written out]VDGASSPVNVSSPSVQDIDIQMTQSPSSLSASVGDRVTITCKASQSVVTAVAWYQQKPGKSPKLLIYSASNRYTGVPSRFSGSGSGTDFTLTISSLQPEDFATYFCQQYSSYPYTFGGGTKVEIKRDLSGGGGSGGGGSGGGGSGGGGSTGEVQLVQSGAEVKKPGSSVKVSCKASGYTFTDYYINWVRQAPGQGLEWIGWIFPGSGSVYCNEQFKGRATLTVDRSTSTAYMELSSLRSEDTAVYFCASSLGKFAYWGQGTLVTVSS
# notes: scFv-Fc-scFv
# B8: B46 (bispecific antibody)
# chain: SYELTQPPSVSVSPGQTASITCSGDKLGDKYASWYQQKPGQSPVLVIYQDNRRPSGIPERFSGSNSGNTATLTISGTQAMDEADYYCQAWDSDTYVFGTGTKVTVLGQDLSGGGGSGGGGSGGGGSGGGGSTGEVQLVQSGAEVKKPGASVKVSCKASGDTFKRYYVHWVRQAPGQGLEWMGIINPSGVSTTYAQKFQGRVTMTRDTSTSTVYMELSSLRSEDTAVYYCAEVRGSGFNYFGMDVWGQGTLVTVSS[human IgG1 Fc with C220S V273E (EU numbers) not written out]VDGASSPVNVSSPSVQDIEVQLQESGPGLVKPSETLSLTCTVSGYSITSNYYWNWIRQPPGKGLEWMGYIRYDGSNNYNPSLKNRVTISRDTSKNQFSLKLSSVTAADTAVYYCARLDYWGQGTTVTVSSDLSGGGGSGGGGSGGGGSGGGGSTGDAVMTQTPLSLSVTPGQPASISCRSSQSLENTNGNTFLNWYLQKPGQSPQLLIYRVSNRFSGVPDRFSGSGSGTDFTLKISRVEAEDVGVYYCLQVTHVPFTFGQGTKLEIKR
# notes: scFv-Fc-scFv
# B9: hu106MSLN-1 (bispecific antibody)
# chain: EVQLVQSGAEVKKPGSSVKVSCKASGYTFTSYYIYWVRQAPGQGLEWIGNIWPGNGGTFYGEKFMGRATFTADTSTSTAYMELSSLRSEDTAVYYCARRPDYSGDDYFDYWGQGTLVTVSSGGGGSGGGGSGGGGSGGGGSGGGGSGGGGSNVMLTQPHSVSESPGKTVTISCKLNSGNIGSYYVHWYQQRPGSSPTTMIYRDDKRPDGVPDRFSGSIDSSSNSASLTISGLKTEDEADYYCHSYDSTITPVFGGGTKLTVLGQ[human IgG1 Fc with C220S V273E (EU numbers) not written out]GGGGSGGGSGGGSGGGGSSYELTQPPSVSVSPGQTASITCSGDKLGDKYASWYQQKPGQSPVLVIYQDNRRPSGIPERFSGSNSGNTATLTISGTQAMDEADYYCQAWDSDTYVFGTGTKVTVLGQGGGGSGGGGSGGGGSGGGGSGGGGSGGGGSEVQLVQSGAEVKKPGASVKVSCKASGDTFKRYYVHWVRQAPGQGLEWMGIINPSGVSTTYAQKFQGRVTMTRDTSTSTVYMELSSLRSEDTAVYYCAEVRGSGFNYFGMDVWGQGTLVTVSS
# Assays:
# [1] = biological target: T2, MSLN (binding assays of Example 4, Table 4-2) (Homo sapiens (Human), UniProt Q13421 296-598); experiment: antigen binding, format not stated
# T2 construct: also called mesothelin
# T2 sequence (Q13421 other isoform, or with tags, fused parts or gaps limits assumed, form in doubt): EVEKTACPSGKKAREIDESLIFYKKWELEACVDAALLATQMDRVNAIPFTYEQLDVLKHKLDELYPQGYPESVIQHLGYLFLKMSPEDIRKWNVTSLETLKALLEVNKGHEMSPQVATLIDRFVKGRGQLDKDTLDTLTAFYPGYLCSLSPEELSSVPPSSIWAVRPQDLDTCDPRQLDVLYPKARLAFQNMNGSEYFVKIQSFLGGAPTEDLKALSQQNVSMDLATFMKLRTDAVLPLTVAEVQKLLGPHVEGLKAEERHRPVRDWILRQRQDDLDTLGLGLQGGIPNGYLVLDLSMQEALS
# [2] = biological target: CD40 (binding assays of Example 4, Table 4-2); experiment: antigen binding, format not stated
# Sequence of CD40 (binding assays of Example 4, Table 4-2) (P25942 21-277): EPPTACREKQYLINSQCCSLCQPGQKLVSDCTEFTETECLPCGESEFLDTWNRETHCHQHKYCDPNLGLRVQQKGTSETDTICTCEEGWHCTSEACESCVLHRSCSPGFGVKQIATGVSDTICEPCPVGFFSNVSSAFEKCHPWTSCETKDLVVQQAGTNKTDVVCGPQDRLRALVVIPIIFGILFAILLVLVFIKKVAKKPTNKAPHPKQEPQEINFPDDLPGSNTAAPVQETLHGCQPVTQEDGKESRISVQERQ
# cynomolgus 4-1BB = biological target: T1, cynomolgus 4-1BB; experiment: SPR
Binder,EC50 [1] [µg/mL],EC50 [2] [µg/mL],Kd (cynomolgus 4-1BB) [nM]
B1,4.4,0.5,
B2,14.3,1.2,
B3,11.9,0.5,
B4,6,0.8,
B5,7.3,3.3,
B6,5.7,0.8,
B7,5.6,1.2,
B8,2.5,0.5,
B9,,,420

# Reference: patent US20180194862A1 (AbbVie / Abbott, published 2018)
